Among all 310,000 compounds or so, about 2,200 (0.71%) showed an effect of 50% or more. The effect is printed as a negative number. The list shows a part of the results.
What follows are molecules tested against human ether-à-go-go-related gene (hERG) potassium channel (human, UniProt Q12809) (assay: primary screen, population patch clamp on CHO cells stably expressing hERG).
Sequence of human ether-à-go-go-related gene (hERG) potassium channel (Q12809 whole entry, looked up): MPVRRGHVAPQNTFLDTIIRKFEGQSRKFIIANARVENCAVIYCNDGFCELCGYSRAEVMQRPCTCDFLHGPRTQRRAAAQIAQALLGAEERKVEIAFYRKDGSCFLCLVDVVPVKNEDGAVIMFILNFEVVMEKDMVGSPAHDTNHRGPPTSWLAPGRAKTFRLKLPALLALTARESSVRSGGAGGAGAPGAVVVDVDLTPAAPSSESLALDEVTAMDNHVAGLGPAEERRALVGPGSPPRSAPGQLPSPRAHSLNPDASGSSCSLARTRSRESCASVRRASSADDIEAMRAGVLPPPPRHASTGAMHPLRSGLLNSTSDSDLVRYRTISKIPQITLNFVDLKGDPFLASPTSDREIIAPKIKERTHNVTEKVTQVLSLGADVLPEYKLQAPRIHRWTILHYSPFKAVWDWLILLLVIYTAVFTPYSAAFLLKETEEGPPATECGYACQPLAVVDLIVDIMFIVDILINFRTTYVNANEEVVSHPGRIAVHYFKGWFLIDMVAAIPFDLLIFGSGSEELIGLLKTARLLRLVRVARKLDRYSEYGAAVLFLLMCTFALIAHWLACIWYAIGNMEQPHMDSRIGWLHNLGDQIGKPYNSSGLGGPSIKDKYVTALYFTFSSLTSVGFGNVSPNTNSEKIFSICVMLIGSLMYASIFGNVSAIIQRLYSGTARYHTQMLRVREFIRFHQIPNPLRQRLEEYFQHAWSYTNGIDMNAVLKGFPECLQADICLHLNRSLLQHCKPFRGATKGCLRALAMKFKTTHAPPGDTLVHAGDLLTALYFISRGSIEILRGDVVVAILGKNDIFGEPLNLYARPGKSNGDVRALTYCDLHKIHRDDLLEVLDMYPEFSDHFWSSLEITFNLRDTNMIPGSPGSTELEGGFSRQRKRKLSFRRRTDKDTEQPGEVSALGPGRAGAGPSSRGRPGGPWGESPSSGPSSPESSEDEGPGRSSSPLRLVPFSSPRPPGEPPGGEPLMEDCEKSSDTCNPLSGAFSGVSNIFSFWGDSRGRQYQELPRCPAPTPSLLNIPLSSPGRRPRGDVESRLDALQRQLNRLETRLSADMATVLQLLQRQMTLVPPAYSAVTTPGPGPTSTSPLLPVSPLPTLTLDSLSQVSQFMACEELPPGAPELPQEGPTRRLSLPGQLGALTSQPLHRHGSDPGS

| Structure (SMILES) | hERG current change (%, negative = inhibition) at 1uM |
| --- | --- |
| O=S(=O)(Nc1cccc(S(=O)(=O)N2CCOCC2)c1)c1ccc2c(c1)OCCO2 | 16.1% |
| Cc1cc(C)nc(NS(=O)(=O)c2ccc(NS(=O)(=O)c3ccccc3)cc2)n1 | 4.46% |
| CC(C)(C)NC(=O)C1CC(=O)N(CCc2ccc(F)cc2)C1 (stereo not drawn) | 13.9% |
| Cc1nc(SCC(N)=O)c(C#N)c(C)c1C | 11.4% |
| Cc1snc(SCC(=O)c2ccc(Cl)cc2)c1C#N | 3.58% |
| COc1ccc(NC(=O)c2c[nH]n3c(=O)cc(C4CCN(C(=O)OC(C)(C)C)CC4)nc23)cc1Cl | 20.3% |
| Cc1cc2c(NC3CCCCC3)ncnc2s1.Cl | 12% |
| CCN1C(=NCc2ccc(OC)cc2)N[C@@H](c2ccccc2)C(C(=O)OC)=C1C | -15.8% |
| O=C(Cc1ccc(S(=O)(=O)N2CCOCC2)s1)Nc1ccccc1N1CCOCC1 | 6.76% |
| COc1ccc(S(=O)(=O)N2CCOC23CCN(S(=O)(=O)c2c(C)cc(C)cc2C)CC3)cc1 | 2.86% |
| COc1cc2c(cc1NC(=O)C(C)OC(=O)/C=C/c1ccc(OC(F)F)cc1)oc1ccccc12 (stereo not drawn) | 6.56% |
| Cc1ccnc(NC(=O)c2cc(F)c(F)cc2Cl)n1 | 14.5% |
| COc1ccc(C2NCCO2)cc1OC (stereo not drawn) | 2.7% |
| O=C(COC(=O)CSc1ccc(F)cc1)NC1CCCCCC1 | 9.31% |
| Cn1nccc1NC(=O)Nc1cccc(Cl)c1 | 21.6% |
| COc1ccc(OC)c(S(=O)(=O)N2CCC(C(=O)Nc3cccc(C(F)(F)F)c3)CC2)c1 | 6.39% |
| CC1(C)C(=O)NCCN1C(=O)CCC(=O)O | -3.77% |
| COc1ccc(CCCc2nnc(SCC(=O)NN)o2)c(C)c1 | 12.4% |
| O=C(CSc1cccc[n+]1[O-])Nc1cccc(S(=O)(=O)NC2=NCCCCC2)c1 | 23.1% |
| Cc1c(C)n2c(SCC(=O)N3CCN(c4ccccc4)CC3)nnc2[nH]c1=O | -6.68% |
| C=CCNC(=S)NNc1nc(Nc2ccccc2)nc(N2CCCCC2)n1 | 9.42% |
| Cc1cc(S(=O)(=O)N(Cc2ccc3c(c2)OCO3)CC2CCCO2)ccc1-n1cnnn1 (stereo not drawn) | 12.1% |

| Structure (SMILES) | hERG current change (%, negative = inhibition) at 1uM |
| --- | --- |
| CNC(=S)N1CCN(c2ccccn2)CC1 | -0.557% |
| CCOC(=O)CN(C(=O)COc1nc(-c2ccccc2)cc(C)c1C#N)c1cccc(OC)c1 | 7.05% |
| Cc1cccc(N2CCN(S(=O)(=O)c3cc4c(cc3Cl)NC(=O)CO4)CC2)c1C | 15.3% |
| COc1cccc(CNS(=O)(=O)c2cc3c4c(c2)CCC(=O)N4CCC3)c1 | 8.31% |
| CCOC(=O)CC1C(=O)NCCN1Cc1cccc(C(F)(F)F)c1 (stereo not drawn) | 16% |
| O=C(COc1ccccc1Cl)Nc1ccc(S(=O)(=O)N2CCOCC2)cc1 | 16% |
| CC(NC(=O)C1CCN(S(=O)(=O)N2CCCCCC2)CC1)c1ccccc1 (stereo not drawn) | 1.6% |
| C=CCN=C(NC#N)SCC(=O)NCc1ccccc1 | 12.2% |
| CCOc1cccc(C2/C(=C(/O)c3ccc4c(c3)CC(C)O4)C(=O)C(=O)N2CCCn2ccnc2)c1 (stereo not drawn) | 15.6% |
| O=C(Cn1nc(-c2ccccc2)ccc1=O)Nc1cccc(NC(=O)c2ccccn2)c1 | 10.7% |
| COc1ccccc1C(=O)COC(=O)/C(=C/c1ccccc1)NC(C)=O | 7.59% |
| Cc1ccc(S(=O)(=O)c2nc(S(C)(=O)=O)sc2N2CCOCC2)cc1 | 13.5% |
| COc1ccc(CC(=O)NCCc2ccc(OC)c(OC)c2)cc1 | 6.31% |
| COc1ccc(OC2C(=O)N(c3ccc(F)cc3)C2c2ccc(OC)c(OC)c2)cc1 (stereo not drawn) | 2.18% |
| COc1cccc(N(CC(=O)Nc2ccc3c(c2)OCO3)S(=O)(=O)c2ccccc2)c1 | 9.57% |
| CC(CCc1ccccc1)NC(=O)CSc1nnnn1C (stereo not drawn) | 7.84% |
| O=C(NCc1ccccc1)C(c1ccco1)N(C(=O)c1cnccn1)c1ccc(F)cc1 (stereo not drawn) | 12.6% |
| CC(=O)Nc1sc(C)c(C)c1C(=O)OCC(=O)N(CC(C)C)C1CCS(=O)(=O)C1 (stereo not drawn) | 15.1% |
| CCc1c(C)nc(N)nc1N1N=C1SCCOc1ccccc1 | 5% |
| CCOc1cccc(C(=O)N/N=C/c2coc3ccccc3c2=O)c1 | 11.6% |
| Cc1ccccc1NC(=O)CC1C(=O)NCCN1C(=O)c1cccc(Cl)c1 (stereo not drawn) | 16.4% |
| COCCN1C(=O)c2ccc(C(=O)O)cc2C1=O | 18.2% |

| Structure (SMILES) | hERG current change (%, negative = inhibition) at 1uM |
| --- | --- |
| O=C1C2Sc3[nH]c(=O)sc3C(c3cc([N+](=O)[O-])ccc3O)C2C(=O)N1c1ccccc1 (stereo not drawn) | 7.87% |
| Cc1ccc(S(=O)(=O)NCC(=O)N2CCN(S(=O)(=O)c3ccc(Cl)cc3)CC2)cc1C | 11.7% |
| COc1ccc(S(=O)(=O)N(Cc2ccc(OC)c(OC)c2)Cc2ccco2)cc1 | -0.929% |
| O=C(COC(=O)c1cc(S(=O)(=O)N2CCOCC2)ccc1O)NCC1CCCO1 (stereo not drawn) | 6.32% |
| O=C(CSC(=S)N1CCCC1)N1CCN(S(=O)(=O)c2cccc([N+](=O)[O-])c2)CC1 | 9.73% |
| C=CCc1c(C)nc(C)nc1N/N=C/c1ccc(N(C)C)cc1 | 2.09% |
| Cc1c(/C(O)=C2\C(=O)C(=O)N(CCN(C)C)C2c2ccccc2)cnn1-c1ccccc1 (stereo not drawn) | 8.46% |
| Cc1sc2ncnc(SCC(=O)c3ccc4c(c3)OCCO4)c2c1-c1ccccc1 | 0.895% |
| Cc1ccc(-n2nc(C)c(C(=O)Nc3cccc(C(=O)NC4CC4)c3)n2)c(C)c1 | 7.41% |
| COc1ccc2cc(/C=N/NC(=O)c3c(Cl)cnn3C)c(Cl)nc2c1 | 12.9% |
| COc1ccccc1/C=C/CN1CCCC(CO)(CCc2ccccc2)C1 (stereo not drawn) | -31.4% |
| CC1=C(C(N)=O)C(c2ccccc2)n2nc(-c3cccs3)nc2N1 (stereo not drawn) | 1.35% |
| COc1cccc(CN2CCN(Cc3cccc4c3OCO4)CC2CCO)c1 (stereo not drawn) | 1.79% |
| C/C(=N\NC(=S)NC(C)C)c1ccccc1 | 8.17% |
| COc1ccc(CNc2ncccc2[N+](=O)[O-])cc1 | 2.91% |
| Cc1nc([N+](=O)[O-])c(N2CCN(C)CC2)n1Cc1ccccc1 | 1.91% |
| CC(=O)c1c(C)[nH]c(C(=O)N2CCN(C(=O)c3ccco3)CC2)c1C | 15.4% |
| Cc1noc(C)c1COC(=O)c1ccc(N(C)C)cc1 | -3.63% |
| CCCC(=O)Nc1ccc(-c2nc3cc(C)c(C)cc3o2)cc1 | 12.4% |
| Cc1cc(C(=O)CN2CCCC(C)C2)c(C)n1-c1ccc(F)cc1 (stereo not drawn) | 15.3% |
| CC(C)[C@H]1COCCS(=O)(=O)N1Cc1cccc(Cl)c1 | 5.02% |
| Cc1ccc(Cl)cc1N1CCN(Cc2nnnn2Cc2ccco2)CC1 | -1.73% |

| Structure (SMILES) | hERG current change (%, negative = inhibition) at 1uM |
| --- | --- |
| Cc1ccc(-c2csc3ncnc(-n4nnc5ccccc54)c23)cc1C | 9.48% |
| CN(C)S(=O)(=O)c1ccc(C(=O)N2CCN(S(=O)(=O)c3cccs3)CC2)cc1 | 11% |
| CC(C)Cn1c2c(c(=O)[nH]c1=O)C(NS(=O)(=O)c1ccc(Cl)cc1)(C(F)(F)F)C(=O)N2 (stereo not drawn) | 15.9% |
| COc1ccccc1C(=O)Nc1c2c(nn1-c1ccc([N+](=O)[O-])cc1)CS(=O)(=O)C2 | 15.7% |
| CCCCc1ccc(-c2nc(N)n[nH]2)cc1 | 14.1% |
| CC(=O)N1CCC(O)(c2ccc3c(c2)OCO3)CC1 | 15.3% |
| O=C(CC1(O)C(=O)N(Cc2ccccc2Cl)c2ccccc21)c1ccco1 (stereo not drawn) | -8.31% |
| O=C1CCCC(=O)C1C1c2ccccc2CCN1C(=O)CCl (stereo not drawn) | 13.1% |
| CC(C)CCN1NC2(CCC(C)CC2)NC1=S (stereo not drawn) | 12.5% |
| CC(=O)OCC(=O)Nc1c(C)cc(C)cc1C | 12.5% |
| CC(=O)Oc1ccc(CCC(C)OC(C)=O)cc1 (stereo not drawn) | 13.9% |
| CCc1nnc(NC(=O)C2CCCN(c3nc(C)cc(C)n3)C2)s1 (stereo not drawn) | -8.24% |
| COc1ccc(CC(=O)NC(C)C2COc3ccccc3O2)cc1OC (stereo not drawn) | 1.19% |
| CCC(C)NC(=O)c1cn(CC)c2cc(N3CCN(C(=O)c4ccco4)CC3)c(F)cc2c1=O (stereo not drawn) | -5.19% |
| CCN(CCO)C(=O)c1ccc2nc(Cc3ccc(OC)cc3)oc2c1 | 11.8% |
| CN(C(=O)C1CCCCC1)C1CCS(=O)(=O)C1 (stereo not drawn) | -0.0893% |
| Cc1nnc(SCc2cc([N+](=O)[O-])cc3c2OCOC3)[nH]c1=O | 7.45% |
| O=C(CO/N=C/c1cccc([N+](=O)[O-])c1)NC1CCCCCC1 | -3.15% |
| CC(=O)N1c2ccccc2C(=O)C1N(C)c1ccc(C)cc1 (stereo not drawn) | 1.58% |
| Cc1ccc(S(=O)(=O)N2CCC(C(=O)N3CCC[C@H]3C(=O)NCC(C)C)CC2)cc1 | 12.2% |
| CCCCn1c(N)c(N(CCOC)C(=O)COC(=O)COc2cc(C)ccc2Cl)c(=O)[nH]c1=O | 22.5% |
